# Laboratory results reported in PubChem BioAssay (NCI).
#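 Five concentrations, 48 hours, 96-well plates. GI50: concentration for 50% inhibition of growth. Definition used: TGI = concentration required for complete inhibition of growth.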
# Test system: NCI-H322M lung
# Assay: inhibition of tumour cell growth, NCI panel, 48 h
Structure (SMILES),GI50 [µM],TGI [µM]
COc1cc2c3c(n(CCCNC4CCCCC4)c(=O)c2cc1OC)-c1cc2c(cc1C3=O)OCO2,17.5,48.2
Clc1ccc2c(N/N=C/c3c[nH]c4ccccc34)ccnc2c1,1.73,3.12
Clc1ccc2oc3c(NCCCN4CCOCC4)c4ccccc4nc3c2c1,1.76,8.8
